{
  "source": "paper PMC4336329",
  "about": "(PLoS ONE, 2015)",
  "note": "The campaign covered roughly 310,000 compounds. About 14,000 (4.5%) showed an effect of 50% or more. The effect is printed as a negative number. This is one part of the list.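 Further: peak tail current of the secondary pulse compared with the same well before compound.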",
  "data": [
    {"molecular_target": "human ether-à-go-go-related gene (hERG) potassium channel (human, UniProt Q12809)", "sequence (Q12809 whole entry, looked up)": "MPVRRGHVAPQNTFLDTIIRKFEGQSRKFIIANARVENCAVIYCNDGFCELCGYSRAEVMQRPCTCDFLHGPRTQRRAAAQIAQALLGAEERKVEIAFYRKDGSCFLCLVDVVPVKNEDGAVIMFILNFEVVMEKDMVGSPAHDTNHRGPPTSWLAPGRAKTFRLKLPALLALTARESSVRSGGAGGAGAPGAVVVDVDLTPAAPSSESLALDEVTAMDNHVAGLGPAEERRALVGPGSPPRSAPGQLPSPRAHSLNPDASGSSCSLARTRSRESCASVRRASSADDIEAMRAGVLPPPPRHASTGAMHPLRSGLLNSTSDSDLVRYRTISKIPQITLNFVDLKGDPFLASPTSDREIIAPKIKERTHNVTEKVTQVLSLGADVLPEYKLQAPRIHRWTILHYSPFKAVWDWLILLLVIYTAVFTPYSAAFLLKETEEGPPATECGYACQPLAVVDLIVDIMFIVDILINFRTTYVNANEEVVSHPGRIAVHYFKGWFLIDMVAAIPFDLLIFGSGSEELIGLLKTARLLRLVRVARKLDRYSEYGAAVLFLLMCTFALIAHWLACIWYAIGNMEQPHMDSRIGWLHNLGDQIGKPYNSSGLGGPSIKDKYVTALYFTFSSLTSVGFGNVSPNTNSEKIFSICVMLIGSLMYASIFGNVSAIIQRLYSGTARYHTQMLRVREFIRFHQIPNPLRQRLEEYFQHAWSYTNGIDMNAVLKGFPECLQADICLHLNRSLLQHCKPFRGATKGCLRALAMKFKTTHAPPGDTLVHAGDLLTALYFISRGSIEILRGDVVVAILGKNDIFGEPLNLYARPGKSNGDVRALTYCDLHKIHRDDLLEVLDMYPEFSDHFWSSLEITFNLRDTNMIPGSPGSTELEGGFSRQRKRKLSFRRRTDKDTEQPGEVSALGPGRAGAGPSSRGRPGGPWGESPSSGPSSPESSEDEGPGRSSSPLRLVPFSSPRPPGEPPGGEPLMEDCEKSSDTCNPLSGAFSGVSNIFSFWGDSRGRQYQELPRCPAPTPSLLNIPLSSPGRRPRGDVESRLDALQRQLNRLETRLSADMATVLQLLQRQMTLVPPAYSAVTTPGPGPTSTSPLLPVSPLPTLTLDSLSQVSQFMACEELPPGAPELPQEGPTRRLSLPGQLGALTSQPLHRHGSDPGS", "assay": "primary screen, population patch clamp on CHO cells stably expressing hERG", "units": {"hERG current change (%, negative = inhibition) at 10uM": "%"}, "values": [
      {"compound": "COc1ccc(NC(=O)CSc2nc(=O)n(CCN(C)C)c3c2CCCC3)cc1OC", "hERG current change (%, negative = inhibition) at 10uM": -11.5},
      {"compound": "O=C(NC1CCCCCCC1)c1ccc2c(c1)OCO2", "hERG current change (%, negative = inhibition) at 10uM": -4.43},
      {"compound": "CC1Cc2ccccc2N1S(=O)(=O)c1cccc(C(=O)N2CCN(c3ncccn3)CC2)c1", "note": "(centres unmarked)", "hERG current change (%, negative = inhibition) at 10uM": -19.3},
      {"compound": "Cn1ncc(Br)c1C(=O)NC(=S)N1CCN(c2ccccn2)CC1", "hERG current change (%, negative = inhibition) at 10uM": 8.48},
      {"compound": "CSc1cccc(CN2CCC(CO)(Cc3ccccc3)CC2)c1", "hERG current change (%, negative = inhibition) at 10uM": -44.8},
      {"compound": "O=C(CCc1nnc(Cc2ccc(-c3ccccc3)cc2)o1)NCC1CC1", "hERG current change (%, negative = inhibition) at 10uM": -4.72},
      {"compound": "Cc1nnc(SCC(N)=O)n1CCc1ccccc1", "hERG current change (%, negative = inhibition) at 10uM": -1.66},
      {"compound": "O=C(NN1C(=O)/C(=C/C=C/c2ccccc2)SC1=S)c1ccncc1", "hERG current change (%, negative = inhibition) at 10uM": 8.66},
      {"compound": "CCC1CCCCN1CCNC(=O)C1CCCN(S(=O)(=O)c2cccc3nsnc23)C1", "note": "(centres unmarked)", "hERG current change (%, negative = inhibition) at 10uM": -41.5},
      {"compound": "O=[N+]([O-])c1cccc(-c2ccc(C(=S)N3CCN(c4ccccc4)CC3)o2)c1", "hERG current change (%, negative = inhibition) at 10uM": 27.7},
      {"compound": "O=C(NCC(c1ccc(F)cc1)N1CCOCC1)c1cccnc1Sc1ccccc1", "note": "(centres unmarked)", "hERG current change (%, negative = inhibition) at 10uM": 3.66},
      {"compound": "COC(=O)C1=C(C)Nc2ncnn2C1c1ccco1", "note": "(centres unmarked)", "hERG current change (%, negative = inhibition) at 10uM": 6.44},
      {"compound": "CN(Cc1nc2ccccc2c(=O)[nH]1)Cc1nc2ccsc2c(=O)[nH]1", "hERG current change (%, negative = inhibition) at 10uM": 1},
      {"compound": "Cc1ccc(S(=O)(=O)N2CCCCC2)cc1NC(=O)c1ccccn1", "hERG current change (%, negative = inhibition) at 10uM": -1.13},
      {"compound": "CC(=O)NS(=O)(=O)c1ccc(NC(=O)CCc2ccccc2)cc1", "hERG current change (%, negative = inhibition) at 10uM": 15.6},
      {"compound": "C/C(=N\\NC(=S)NC1CCCCC1)c1ccc(C#N)cc1", "hERG current change (%, negative = inhibition) at 10uM": 14},
      {"compound": "CN(CC(=O)Nc1ccccc1Cl)C(=O)COC(=O)c1ccc([N+](=O)[O-])cc1Cl", "hERG current change (%, negative = inhibition) at 10uM": -16.7},
      {"compound": "CC(=O)N1c2c(cc(Br)cc2S(=O)(=O)N2CCN(c3ccccn3)CC2)CC1C", "note": "(centres unmarked)", "hERG current change (%, negative = inhibition) at 10uM": -12.3},
      {"compound": "CCCCN=C1NN=C(c2cc3ccccc3o2)CS1", "hERG current change (%, negative = inhibition) at 10uM": -25.9},
      {"compound": "O=C(Nc1ccc2c(c1)OCCO2)c1ccc(Cl)c([N+](=O)[O-])c1", "hERG current change (%, negative = inhibition) at 10uM": 6.48},
      {"compound": "Cc1csc(NC(=O)c2ccc(S(=O)(=O)N(C)c3ccccc3)cc2)n1", "hERG current change (%, negative = inhibition) at 10uM": -2.94},
      {"compound": "CCOc1ccc(/C=N\\NC(=O)c2c(C)nc3cc(C)ccn23)cc1", "hERG current change (%, negative = inhibition) at 10uM": -2.47},
      {"compound": "Cc1cccc(CSCc2ccc(C(=O)NC3CCCC3)o2)c1", "hERG current change (%, negative = inhibition) at 10uM": -55.5},
      {"compound": "Cc1cc(N/N=C/c2ccccc2)nc(N2CCOCC2)n1", "hERG current change (%, negative = inhibition) at 10uM": -47.8},
      {"compound": "COc1ccc(OC)c(NC(=O)CS(=O)(=O)c2cn(CC(=O)N3CCOCC3)c3ccccc23)c1", "hERG current change (%, negative = inhibition) at 10uM": -1.38},
      {"compound": "COc1ccc2c(CC(=O)Nc3ccccc3N3CCOCC3)coc2c1", "hERG current change (%, negative = inhibition) at 10uM": -39.9},
      {"compound": "O=C(COc1ccc(Br)cc1)Nc1ccc(-c2nnc(-c3ccco3)o2)cc1", "hERG current change (%, negative = inhibition) at 10uM": -1.86},
      {"compound": "COc1ccc(S(=O)(=O)N2CCCC2)c(C)c1C", "hERG current change (%, negative = inhibition) at 10uM": -12.1},
      {"compound": "CCOC(=O)N1CCN(C(=O)CSc2nc3c(cnn3-c3ccc(C)cc3)c(=O)[nH]2)CC1", "hERG current change (%, negative = inhibition) at 10uM": -33.3},
      {"compound": "Cc1ccc(NC(=O)Cn2nnc(C(=O)NCc3ccco3)c2N)cc1", "hERG current change (%, negative = inhibition) at 10uM": 4.66},
      {"compound": "CCN(CC(=O)Nc1ccccc1C(F)(F)F)C(=O)Cc1cccs1", "hERG current change (%, negative = inhibition) at 10uM": 3.23},
      {"compound": "Cc1cc(C(=O)NNS(=O)(=O)c2cccc(Cl)c2)nn1C(C)(C)C", "hERG current change (%, negative = inhibition) at 10uM": -3.12},
      {"compound": "O=C(Nc1cccc(C(=O)N2CCCC2)c1)c1ccccc1Cl", "hERG current change (%, negative = inhibition) at 10uM": 1.24},
      {"compound": "CC1(N2CCOCC2)CC2(O)C(=[N+]1[O-])CCc1c2no[n+]1[O-]", "note": "(centres unmarked)", "hERG current change (%, negative = inhibition) at 10uM": 7.65},
      {"compound": "COc1ccc(/C=N/NC(=O)c2[nH]c3ccc(Br)cc3c2-c2ccccc2)c(C(=O)O)c1OC", "hERG current change (%, negative = inhibition) at 10uM": -4.97},
      {"compound": "O=C(CNC(=O)c1ccccc1)OCc1cccc(Br)c1", "hERG current change (%, negative = inhibition) at 10uM": -17.8},
      {"compound": "CCOc1ccc(-c2nnc(N3CCCCC3)c3ccccc23)cc1", "hERG current change (%, negative = inhibition) at 10uM": -6.17},
      {"compound": "Cc1cccc(N=N/C(=C\\O)C(=O)c2cccs2)c1", "hERG current change (%, negative = inhibition) at 10uM": 0.309},
      {"compound": "C=CCn1c(-c2sc(-c3ccccc3)nc2C)n[nH]c1=S", "hERG current change (%, negative = inhibition) at 10uM": 8.64},
      {"compound": "CC1CCN(S(=O)(=O)c2ccc(NC(=O)Cc3ccccc3)cc2)CC1", "hERG current change (%, negative = inhibition) at 10uM": 13},
      {"compound": "Cc1ccc(C(=O)NCCSc2c(C)[nH]c3ccccc23)cc1[N+](=O)[O-]", "hERG current change (%, negative = inhibition) at 10uM": -4.03},
      {"compound": "O=C(O)/C=C/C(=O)N1CCN(c2ccccc2F)CC1", "hERG current change (%, negative = inhibition) at 10uM": 7.85},
      {"compound": "C=CCOC(=O)C(C#N)c1nc2ccccc2nc1N1CCN(Cc2ccccc2)CC1", "note": "(centres unmarked)", "hERG current change (%, negative = inhibition) at 10uM": -62.1},
      {"compound": "O=C(CN1CCCCCC1)Nc1ccc(Br)cc1Br", "hERG current change (%, negative = inhibition) at 10uM": -0.929},
      {"compound": "COc1ccc(NC(=O)c2cc(-c3ccccc3O)n[nH]2)cc1Cl", "hERG current change (%, negative = inhibition) at 10uM": 22.9},
      {"compound": "C=CCn1c(CNS(=O)(=O)c2ccc(Cl)cc2)n[nH]c1=S", "hERG current change (%, negative = inhibition) at 10uM": 7.76},
      {"compound": "CN1C(=O)C2(OCC(CO)([N+](=O)[O-])CO2)c2ccccc21", "note": "(centres unmarked)", "hERG current change (%, negative = inhibition) at 10uM": 23.9},
      {"compound": "CC1(C)C(C(=O)N2CCN(C(=O)c3ccccc3)CC2)C1(C)C", "hERG current change (%, negative = inhibition) at 10uM": -3.62},
      {"compound": "CCSc1nnc(NC(=O)c2cccnc2Cl)s1", "hERG current change (%, negative = inhibition) at 10uM": 16.3},
      {"compound": "C=CCn1c(Sc2nnc(C)s2)nc2c1c(=O)[nH]c(=O)n2C", "hERG current change (%, negative = inhibition) at 10uM": 11.2},
      {"compound": "COc1cc(S(=O)(=O)NCC(c2ccco2)N2CCCCC2)ccc1NC(C)=O.Cl", "note": "(centres unmarked)", "hERG current change (%, negative = inhibition) at 10uM": -3.07},
      {"compound": "CCC(=O)Nc1ccc(N2CCN(C(=O)c3ccccc3C)CC2)cc1", "hERG current change (%, negative = inhibition) at 10uM": 0.168},
      {"compound": "O=C(O)C1CCc2sc3[nH]c(=S)n(-c4ccccc4)c(=O)c3c21", "note": "(centres unmarked)", "hERG current change (%, negative = inhibition) at 10uM": 21.6},
      {"compound": "Cn1c(-n2c(-c3ccco3)nc3ccccc3c2=O)nc2ccccc21", "hERG current change (%, negative = inhibition) at 10uM": 11.6},
      {"compound": "O=c1c2ccccc2c(C=NCCc2ccccc2)c(O)n1Cc1ccccc1", "hERG current change (%, negative = inhibition) at 10uM": -5.61},
      {"compound": "COc1ccc(-n2c3c(cc(C(=O)Nc4ccc(C)cc4)c2=O)C(=O)CCC3)cc1", "hERG current change (%, negative = inhibition) at 10uM": -5.94}
    ]}
  ]
}
